Among all 310,000 compounds or so, about 2,200 (0.71%) showed an effect of 50% or more. Effects have a minus sign here. The list shows a part of the results.
molecular target: human ether-à-go-go-related gene (hERG) potassium channel (human, UniProt Q12809); assay: primary screen, population patch clamp on CHO cells stably expressing hERG
Sequence (Q12809 whole entry, looked up): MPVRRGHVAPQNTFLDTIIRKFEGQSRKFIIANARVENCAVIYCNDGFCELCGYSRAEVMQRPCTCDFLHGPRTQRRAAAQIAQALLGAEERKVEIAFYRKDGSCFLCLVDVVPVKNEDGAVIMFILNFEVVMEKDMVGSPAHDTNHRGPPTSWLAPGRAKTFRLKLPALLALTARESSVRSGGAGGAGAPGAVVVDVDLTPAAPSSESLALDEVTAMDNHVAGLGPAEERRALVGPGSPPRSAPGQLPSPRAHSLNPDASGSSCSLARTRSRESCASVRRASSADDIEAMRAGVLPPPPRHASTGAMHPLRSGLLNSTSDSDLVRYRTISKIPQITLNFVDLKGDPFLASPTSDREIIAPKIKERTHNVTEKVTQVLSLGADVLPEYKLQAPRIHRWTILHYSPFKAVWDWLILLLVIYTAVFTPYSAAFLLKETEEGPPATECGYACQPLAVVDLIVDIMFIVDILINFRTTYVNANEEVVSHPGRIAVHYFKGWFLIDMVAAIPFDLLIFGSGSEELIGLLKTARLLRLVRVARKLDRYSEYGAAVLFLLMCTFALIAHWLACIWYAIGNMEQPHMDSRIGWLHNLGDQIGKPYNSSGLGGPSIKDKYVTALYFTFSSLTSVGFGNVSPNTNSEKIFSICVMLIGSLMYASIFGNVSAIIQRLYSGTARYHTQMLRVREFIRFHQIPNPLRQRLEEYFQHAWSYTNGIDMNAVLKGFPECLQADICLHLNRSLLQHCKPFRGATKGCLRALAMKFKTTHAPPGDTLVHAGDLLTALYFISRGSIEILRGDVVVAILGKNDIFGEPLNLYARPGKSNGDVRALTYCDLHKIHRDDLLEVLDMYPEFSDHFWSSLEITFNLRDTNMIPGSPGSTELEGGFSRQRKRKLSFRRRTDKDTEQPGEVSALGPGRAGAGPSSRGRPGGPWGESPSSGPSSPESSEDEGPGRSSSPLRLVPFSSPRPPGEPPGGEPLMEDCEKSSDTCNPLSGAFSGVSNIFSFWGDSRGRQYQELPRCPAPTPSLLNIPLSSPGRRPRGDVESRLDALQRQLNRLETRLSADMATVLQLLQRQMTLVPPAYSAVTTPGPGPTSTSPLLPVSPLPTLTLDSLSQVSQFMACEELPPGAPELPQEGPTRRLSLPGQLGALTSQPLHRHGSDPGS

Row | SMILES | hERG current change (%, negative = inhibition) at 1uM [%]
1 | CCOc1ccc(NC(=O)c2ccc(NC(=O)Cc3n[nH]c(=O)c4ccccc34)cc2)cc1 | 8.7
2 | CCCCOc1ccc(CCC(=O)N/N=C/c2ccco2)cc1 | 0.761
3 | O=C(COc1ccccc1Br)NC1CCCC1 | 12.2
4 | Cc1cccc(NC(=O)Cc2ccc(F)cc2)c1 | -4.79
5 | O=C(NNc1ccc(C2CCCCC2)cc1)C(O)(c1ccccc1)c1cccs1 (stereo not drawn) | -9.24
6 | O=C(NCc1ccco1)C1CC(c2ccccc2O)=NO1 (stereo not drawn) | 19.3
7 | Cc1ccc(S(=O)(=O)N2CCOCC2)cc1NC(=O)COC(=O)c1cc[n+]([O-])cc1 | 10
8 | COc1cc(N=C2C(=O)N3CCCc4cccc2c43)cc(OC)c1 | 13.9
9 | COC(=O)C1=C(C)OC(N)=C(C#N)C1c1cc(OC)ccc1OC (stereo not drawn) | -3.2
10 | Clc1ccccc1OCCN1CCCCC1 | 2.28
11 | Cc1ccc(-c2csc(N3CCN(CCCn4c(C(F)(F)F)nc5ccccc54)CC3)n2)cc1 | 0.274
12 | O=C(Nc1cccc(S(=O)(=O)N2CCOCC2)c1)C1CC(=O)N(c2ccc3c(c2)OCCO3)C1 (stereo not drawn) | 15
13 | O=C(Nc1ccc(N2CCN(c3ccccc3)CC2)c(F)c1)C1CC1 | 6.68
14 | Cc1cc(C(=O)CCl)c(C)n1CCc1ccc(F)cc1 | 20
15 | Cc1nc2nc(-c3cccs3)cn2nc1C | 12.6
16 | O=C(Cc1cc(=O)[nH]c(=O)[nH]1)N1CCN(C(=O)c2ccco2)CC1 | 16.4
17 | CC(C)(C)N1CC2(c3ccccc3)CN(C(C)(C)C)CC(c3ccccc3)(C1)C2=O | -2.44
18 | O=C(CN1C(=O)c2ccccc2C1=O)NCC1COc2ccccc2O1 (stereo not drawn) | 9.94
19 | COc1ccc(C(=O)NCc2oc(-c3ccccc3)cc2C(=O)O)cc1 | 14.2
20 | CC(=O)Nc1ccc(N(C(=O)c2cnccn2)C(C(=O)NC2CCCCC2)c2ccc(O)cc2)cc1 (stereo not drawn) | 6.54
21 | CCOCCCNC(=O)C(NC(=O)c1ccccc1O)c1ccc(C)cc1 (stereo not drawn) | 15.6
22 | CC(C)N(Cc1ccccc1)C(=O)CCS(=O)(=O)c1ccc2c(c1)oc(=O)n2C | 8.54

Row | SMILES | hERG current change (%, negative = inhibition) at 1uM [%]
23 | O=C(Nc1nnc(-c2ccccc2)s1)c1ccccc1O | -6.22
24 | O=C(COC(=O)Cc1ccccc1F)Nc1ccc(Cl)cn1 | 11.6
25 | Nc1nonc1C(=O)N/N=C/c1ccc([N+](=O)[O-])o1 | 4.4
26 | Cc1ccc(S(=O)(=O)N(Cc2nccn2C)C(C)C)cc1.Cl | 2.63
27 | Cc1ccc(S(=O)(=O)c2ccccc2)cc1S(=O)(=O)N1CCOCC1 | 4.58
28 | CCNC(=O)Nc1nc2ccccc2s1 | 8.72
29 | COc1ccccc1N1N=C(c2ccc([N+](=O)[O-])cc2)CC1c1ccccc1 (stereo not drawn) | 18.8
30 | Cc1ccc2oc(=O)cc(/C=C/c3ccccc3)c2c1 | -1.69
31 | N#CC1(NC(=O)COC(=O)CCN=C2NS(=O)(=O)c3ccccc32)CCCCC1 | 19.4
32 | COc1ccccc1C(=O)N/C(=C\c1cn(C)c2ccccc12)C(=O)N1CCCC1 | 7.3
33 | CCn1ncc(CN2CCN(C(=O)Nc3ccccc3C(=O)OC)CC2)c1C | 4.62
34 | Cc1nn2c(NCc3cccnc3)c3c(nc2c1-c1ccccc1)CCC3 | -25.1
35 | Cc1cc(C(=O)N2CC(C)CC(C)C2)c(C)o1 (stereo not drawn) | 6.62
36 | COc1cccc(CN2CCC(Oc3ccc(C(=O)NCc4ccccn4)cc3)CC2)c1 | 8.1
37 | O=C(c1cc(S(=O)(=O)N2CCOCC2)ccc1Cl)N1CCN(c2ccccn2)CC1 | 14.6
38 | CCCC(C)NC(=O)Cc1ccc(S(=O)(=O)N2CCOCC2)s1 (stereo not drawn) | 9.67
39 | CCn1cc(C(=O)NCc2ccc(C)cc2)c(=O)c2cc(S(=O)(=O)N(C)C)ccc21 | 9.41
40 | O=C(NN1C(=O)C2C3C=CC(C4CC34)C2C1=O)c1ccccc1Cl (stereo not drawn) | 6.71
41 | CNc1oc(Cc2ccccc2)nc1S(=O)(=O)c1ccc(Cl)cc1 | 3.2
42 | CC(=O)Nc1ccc(NC(=O)C(C)OC(=O)c2cccs2)cc1 (stereo not drawn) | 2.86
43 | CN1CCO/C1=C(\C(Cl)=C(Cl)Cl)[N+](=O)[O-] | 13
44 | O=C1CCC(=O)N1c1ccc(S(=O)(=O)N2CCCC2)cc1 | 6.91

Row | SMILES | hERG current change (%, negative = inhibition) at 1uM [%]
45 | COc1cc(C2Nc3cccc4cccc(c34)N2)ccc1O | 13.4
46 | Cc1ccc2c(CC(=O)N(CC3CCCO3)c3c(N)n(Cc4ccccc4)c(=O)[nH]c3=O)coc2c1 (stereo not drawn) | 13.1
47 | CC(=O)Nc1ccc2c(CSc3nnc(-c4cccnc4)n3-c3ccc(C)cc3C)cc(=O)oc2c1 | 7.05
48 | Cc1cc(C)c2sc(NNC(=O)C3COc4ccccc4O3)nc2c1 (stereo not drawn) | 11
49 | Cc1ccc2[nH]ccc(=O)c2c1 | 10.9
50 | CN(CCc1ccccn1)C(=O)CCC1CCCN(Cc2ccccc2OC(F)F)C1 (stereo not drawn) | 11.4
51 | COc1cccc(-c2ccc3nnc(SCC(=O)Nc4ccc(NC(C)=O)cc4)n3n2)c1 | 10
52 | CN(Cc1ccccc1)C(=O)CN1C(=O)NC2(CCCCCCC2)C1=O | 0.564
53 | O=C(Cn1ccc([N+](=O)[O-])n1)Nc1nccs1 | 0.0851
54 | Nc1nc(C(c2ccccc2)c2ccccc2)cs1 | 6.86
55 | CCn1cc(C(=O)NCCCN2CCN(C)CC2)c(=O)c2cc(S(=O)(=O)N3CCc4ccccc4C3)ccc21 | 8.75
56 | CCOC(=O)[C@H]1[C@H]2COc3ccc(OC)cc3[C@@H]2N2C(=O)CN(Cc3ccc(F)cc3)C(=O)[C@@]12C | 11.2
57 | CC1(C)S/C(=N/N=C/c2ccco2)NC1=O | 17.4
58 | COc1ccc(-c2nnc(SCC(=O)NC3CCCCC3)o2)cc1OC | 1.39
59 | CC1CCN(C(=O)c2ccc(CSc3ccc(Cl)cc3)cc2)CC1 | -3.75
60 | COc1ccc(CCN2C(=O)c3cccc4cccc(c34)C2=O)cc1OC | 5.35
61 | CCn1c(C)nc2cc(C(=O)NNC(=O)c3ccc(Cl)nc3)ccc21 | 24.1
62 | COc1cc(OC)c(OC)cc1CNC(=O)CCN1C(=O)c2cccc([N+](=O)[O-])c2C1=O | 10.3
63 | Cc1nn(-c2ccccc2)c(C)c1/C=N/NC(=O)c1cc(O)cc(O)c1 | 8.52
64 | Cc1cc(Nc2ccc(Br)cc2)nc2ccccc12 | 14
65 | O=C(CSc1nnc2ccccn12)NNC(=O)c1cccc([N+](=O)[O-])c1 | -1.64
66 | CCN(CC)C(=O)C1CCN(Cc2ccc(OCc3ccccc3)c(OC)c2)CC1.O=C(O)C(=O)O | -6.42

Row | SMILES | hERG current change (%, negative = inhibition) at 1uM [%]
67 | COP(=O)(OC)C(NS(=O)(=O)c1ccccc1)C(Cl)(Cl)Cl (stereo not drawn) | 13.2
68 | N#C/C(C(=O)NCc1ccco1)=C1/SC=C(c2ccccc2)N1c1ccccc1 | 17.1
69 | CCC(C(=O)N1C[C@H]2C[C@@H](C1)c1cccc(=O)n1C2)c1ccccc1 (stereo partly drawn) | 2.56
70 | O=C(c1ccc(-n2cncn2)c([N+](=O)[O-])c1)N1CCN(c2cccc(Cl)c2)CC1 | -15.4
71 | O=C(CN1CCN(CC(=O)Nc2cccc(F)c2)CC1)NCC1(N2CCOCC2)CCCCC1 | 0.0709
72 | COc1cccc2cc(C(=O)c3ccccc3)oc12 | 7.53
73 | CCC(C)NC(=S)Nc1ccc(F)cc1 (stereo not drawn) | 8.14
74 | CCN(CC)S(=O)(=O)c1ccc2c(c1)nc(CCC(=O)Nc1ccc(N3CCOCC3)cc1)n2C | 15.6
75 | COc1cccc(CN2CCN(C3CCOCC3)CC2CCO)c1 (stereo not drawn) | 10.9
76 | CN1C(=S)SC(/[N+]([O-])=C\c2ccc(Cl)cc2)C1(C)C (stereo not drawn) | 9.19
77 | COc1ccc(C(=S)N2CCOCC2)cc1OC(=O)c1ccccc1 | 19.3
78 | COC(=O)C1=C(c2ccc(F)cc2OCc2ccccc2)C[C@@H]2CC[C@H]1N2C(=O)NCc1ccc([N+](=O)[O-])cc1 | 0.735
79 | COc1ccc(CN(C(=S)Nc2ccccc2)C2CC(=O)N(c3ccc(Cl)cc3)C2=O)cc1 (stereo not drawn) | 2.41
80 | CCn1cnc2cc(NC(=O)c3cccs3)ccc21 | 8.67
81 | CC1(c2ccc(Cl)cc2)NC(=O)N(CC(=O)N2CCc3ccccc3C2)C1=O (stereo not drawn) | -0.91
82 | Cc1ccc(-c2c(C(=O)O)c3ccccc3[nH]c2=O)cc1 | 10.1
83 | CN(CC(=O)Nc1ccc(F)cc1)C(=O)C1CCCC1 | 7.47
84 | O=C(Nc1ccccc1N1CCOCC1)c1ccco1 | 13.5
85 | COc1ccc(Cc2nnc(NS(=O)(=O)c3ccc(NC(C)=O)cc3)s2)cc1 | 14.5
86 | O=C(Nc1nc(-c2ccc(F)c(F)c2)cs1)c1cnccn1 | 5.09
87 | CC1(C)Cc2ccccc2C(N/N=C/c2ccc([N+](=O)[O-])cc2)=N1 | 12
